Experimental data as given in US6121271A, “Naphtho[2,3-B]heteroar-4-yl derivatives” (American Home Products Corporation, priority 1999, dated 2000).

Target: T1, recombinant, human protein tyrosine phosphatase (PTP) 1B (Homo sapiens, UniProt P18031)
T1 sequence (P18031 1-435): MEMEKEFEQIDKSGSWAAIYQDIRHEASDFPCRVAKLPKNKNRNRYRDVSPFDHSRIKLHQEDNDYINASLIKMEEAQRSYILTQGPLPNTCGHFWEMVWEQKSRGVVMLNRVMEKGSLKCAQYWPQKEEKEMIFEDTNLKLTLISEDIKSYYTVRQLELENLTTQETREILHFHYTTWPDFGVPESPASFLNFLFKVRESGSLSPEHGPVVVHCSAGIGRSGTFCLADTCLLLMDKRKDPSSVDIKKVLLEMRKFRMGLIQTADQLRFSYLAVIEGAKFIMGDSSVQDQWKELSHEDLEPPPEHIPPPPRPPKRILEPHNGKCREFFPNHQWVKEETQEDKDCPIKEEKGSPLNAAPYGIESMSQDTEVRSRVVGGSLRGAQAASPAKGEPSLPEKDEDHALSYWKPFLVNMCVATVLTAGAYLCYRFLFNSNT

- IC50: 37 nM
SMILES: Cc1cc(-c2c3ccccc3c(Br)c3sc(C)c(C)c23)cc(C)c1OS(=O)(=O)c1ccc(C(=O)O)c(OC(=O)c2ccncc2)c1 [Example 30, Isonicotinic acid 5-[4-(9-bromo-2,3-dimethyl-naphtho[2,3-b]thiophen-4-yl)-2,6-dimethyl-phenoxysulfonyl]-2-carboxy-phenyl ester]
